Reference: PubChem BioAssay AID485344 (National Center for Advancing Translational Sciences (NCATS), 2010)
About 6,900 (2%) of roughly 340,000 compounds were called active. Cut-off read from the data, not from the text of the source: active = inhibition above about 30%; inactive = below that, where a call was filed. Only a part is listed here, and it is no random draw. Entries without a call were filed so in the source.

target: D(2) dopamine receptor (Homo sapiens) (UniProt P14416); experiment: HTS Assay for Allosteric Antagonists of the Human D2 Dopamine Receptor: Primary Screen for Antagonists; settings: HEK293 TREx D2 cells, calcium flux, dopamine EC80; at 10 µM; stronger effect = higher value; note: 0% is about no effect
How it was run: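 Read-out: kinetic calcium fluorescence (1 cycle/s) in inducible HEK293 T-REx D2 cells after an EC80 dopamine addition that followed 180 s compound preincubation. Loss of the dopamine response indicates antagonism.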

Chain of UniProt P14416 (P14416 whole entry, looked up): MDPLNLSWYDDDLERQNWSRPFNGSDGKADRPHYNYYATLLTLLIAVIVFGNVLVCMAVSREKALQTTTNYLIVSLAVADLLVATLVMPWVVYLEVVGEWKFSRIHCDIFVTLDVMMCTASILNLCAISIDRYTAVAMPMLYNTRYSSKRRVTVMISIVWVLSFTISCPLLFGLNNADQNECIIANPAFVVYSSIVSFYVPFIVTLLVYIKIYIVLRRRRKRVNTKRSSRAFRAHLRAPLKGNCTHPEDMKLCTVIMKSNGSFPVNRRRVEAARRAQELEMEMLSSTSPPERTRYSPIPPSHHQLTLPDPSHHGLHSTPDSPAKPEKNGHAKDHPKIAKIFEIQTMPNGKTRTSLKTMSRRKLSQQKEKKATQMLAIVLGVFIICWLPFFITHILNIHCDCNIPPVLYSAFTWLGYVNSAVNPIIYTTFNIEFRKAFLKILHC

SMILES	inhibition
CCOc1ccc(CNC(=O)CCS(=O)(=O)c2cc3c(cc2Cl)NC(=O)CO3)cc1OC	-0.958%
CCOC(=O)c1ccccc1NC(=O)Nc1cc2c(cc1N1CCCCC1)n(C)c(=O)n2C	13.1%
O=C(CSc1ncccn1)NCc1ccc(Cl)cc1	active: 35.8%
CCOc1ccc(Oc2nc(NCC(C)C)nc(NC(C)(C)C)n2)nn1	13.9%
Cc1ccc(S(=O)(=O)n2ccc3cccnc32)cc1	active: 37.3%
COc1cccc(NC(=O)CCc2c(C)nc3c4cccnc4nn3c2C)c1	5.93%
O=C(Nc1ccc(N2CCC(c3ccccc3)C2)c(C(=O)O)c1)c1ccc(Cl)cc1 (stereo unspecified)	17.6%
CCc1cccc(CC)c1NC(=O)c1ccc2c(c1)CCN2S(=O)(=O)c1ccccc1	-4.4%
COc1ccccc1OCC(=O)N(Cc1ccc(Cl)cc1)CC1CCCO1 (stereo unspecified)	-12.3%
CC(=O)c1ccc(NC(=O)CC2Nc3cccc4cccc(c34)NC2=O)cc1 (stereo unspecified)	13.1%
CSc1ccc(CCNC(=O)CCCn2nc(C)c3sc4ccccc4c3c2=O)cc1	-4.49%
Cc1cccc(NC(=O)CN2C(=O)c3cccnc3Oc3ccc(Cl)cc32)c1C	0.638%
CC1=Nc2cc(C(=O)NC3CCCC3)ccc2Sc2ccc(C)cc21	-1.04%
Cc1ccc(Nc2nnc(C)c(=O)[nH]2)cc1	active: 43.2%
COc1cccc(C(=O)Nc2ccccc2C(=O)OCc2cc(=O)n3c(C)csc3n2)c1	0.795%
COc1ccc(NC(=O)Cn2c(C)cc3ccccc3c2=O)c(OC)c1	3.91%
Cc1nn(-c2nc(-c3ccc(F)cc3)cc(C(F)(F)F)n2)c(C)c1Br	-15.6%
COC(=O)c1cc(C)nc2c1c(=O)nc(SCc1cccc(C)c1)n2C1CC1	6.31%
COCCCNC(=O)c1cnn(-c2ccccc2Cl)c1C1CCN(C(=O)OC(C)(C)C)CC1	13.4%
COc1ccc(CNC(=O)C2CCN(C(=O)c3ccc(-n4ccc5ccccc54)s3)CC2)cc1	-3.84%
COC(=O)c1ccc(NC(=O)CSc2cn(CC(=O)N3CCCCCC3)c3ccccc23)cc1	-6.72%
COc1ccc(CCNC(=O)c2cccc(-n3c(C)nc4cccnc43)c2)cc1OC	-2.27%
Cc1c(NC(=O)c2cc(-c3ccc(O)cc3)on2)c(=O)n(-c2ccccc2)n1C	-8.8%
COc1ccc(NC(=O)C(=O)NCCc2ccc(OC)c(OC)c2)c(OC)c1	-9.91%

SMILES	inhibition
O=C(COc1ccccc1Cl)OCc1cc(=O)n2nc(C3CC3)sc2n1	1.91%
COc1ccccc1CNc1nc2ccccc2c2nc(-c3cccnc3)nn12	-0.488%
NNC(=O)CN1C(c2cccc(Cl)c2)=Nc2ccc(Br)cc2C1c1ccccc1 (stereo unspecified)	active: 33.9%
NC(=O)C1(N2CCCCC2)CCN(Cc2ccc(Br)cc2)CC1	active: 36.8%
COc1ccc(Cl)cc1NC(=O)c1cc2ccc3ccc(C)[nH]c3c2n1	25.4%
COC(=O)C1Cc2c([nH]c3ccccc23)C2(CCN(Cc3ccccc3)CC2)N1 (stereo unspecified)	active: 75%
Cn1cc(S(=O)(=O)c2ccc(Cl)cc2)c(=O)c2cc(F)c(N3CCCC3)cc21	8.29%
Cc1ccc(Cn2c(CNS(=O)(=O)c3ccc(C(C)(C)C)cc3)nc3cccnc32)cc1	-5.77%
Cc1nc2sccn2c(=O)c1S(=O)(=O)NCc1ccc(F)cc1	6.91%
CCc1ccc(NC(=O)CSc2c(C)cnc3c2c(=O)n(C)c(=O)n3C)cc1	-6.34%
Cn1c(=O)c2nc(SCC(=O)Nc3cc(Cl)cc(Cl)c3)n(C)c2n(C)c1=O	-14.2%
O=C(c1cc(-c2ccc(Cl)cc2)on1)N(Cc1cccc(F)c1)Cc1ccco1	-20.1%
COc1ccc(CNc2nc(-c3ccco3)nn2C(=O)c2ccccc2Cl)cc1	-5.37%
COc1cc(NC(=O)c2cc(-c3cccs3)on2)c(OC)cc1Cl	1.92%
COc1ccc(-c2cc(C(=O)Nc3ccc4c(c3)OCO4)no2)cc1OC	-21.7%
CC(C)C[C@H]1CN=C(Nc2ccccc2)N1CCc1ccc(F)cc1	active: 73.5%
COCCCn1c(=N)c(S(=O)(=O)c2ccccc2)cc2c(=O)n3cc(C)ccc3nc21	-7.62%
COc1cccc(NC(=O)C2CCCN(c3nnc(-n4c(C)ccc4C)s3)C2)c1 (stereo unspecified)	0.628%
Cc1ccc(OCC(=O)OCc2cc(=O)n3nc(-c4cccs4)sc3n2)cc1	-2.53%
COc1ccccc1CNC(=O)CCCn1nc(C)c2sc3ccccc3c2c1=O	21.3%
Cc1ccccc1OCC(=O)Nc1ccc2nc(SCC(=O)N(C)c3ccccc3)sc2c1	-17.2%
CC(C)(C)OC(=O)N1CCC(c2c(C(=O)N3CCN(c4ccc(Cl)cc4)CC3)cnn2-c2ccc(F)cc2F)CC1	1.78%
Cc1ccccc1OCC(=O)N(Cc1ccc(N(C)C)cc1)CC1CCCO1 (stereo unspecified)	-5.89%
Cn1cc(-c2cc3n(n2)CCC(=O)N3CC(=O)O)c2ccccc21	-0.896%

SMILES	inhibition
Cc1cccc(CNC(=O)CCCN2C(=O)CCn3nc(-c4cn(C)c5ccccc45)cc32)c1	20.3%
C[C@H](N=C1NS(=O)(=O)c2ccccc21)C(=O)OCc1cc([N+](=O)[O-])cc2c1OCOC2	active: 44.6%
CCN1CCN(c2c(S(=O)(=O)c3ccccc3)cnc3ccc(Cl)cc23)CC1	-8.32%
CCOc1ccc(CC(=O)NC2CC(=O)N(c3ccc(C)c(C)c3)C2)cc1 (stereo unspecified)	-22%
COc1ccccc1N(CC(=O)Nc1ccc(C)c(Cl)c1)S(=O)(=O)c1ccc(C)cc1	-1.85%
O=C(C1CCC1)N1CCCc2cc(S(=O)(=O)Nc3ccc(F)cc3)ccc21	13.9%
C#CC(C)(CC)NC(=O)c1cc2c(n(-c3ccc(Cl)cc3)c1=O)CC(C)(C)CC2=O (stereo unspecified)	6.65%
COCCn1c(C)cc(O)c(C(c2ccc(C)cc2)N2CCCCC2)c1=O (stereo unspecified)	10.1%
CC(=O)N1CCc2cc(Br)cc(S(=O)(=O)N3CCN(c4cc(C)ccc4C)CC3)c21	0.687%
CC(=O)N1c2ccccc2C(=O)C1N1CCN(c2cccc(C(F)(F)F)c2)CC1 (stereo unspecified)	4.66%
Cc1cccc(N2CCN(S(=O)(=O)c3ccc(F)c(C(=O)Nc4ccc(C(C)C)cc4)c3)CC2)c1C	6.44%
COc1ccc(-c2noc(CN3CCN(c4cccc(Cl)c4)CC3)n2)cc1	4.32%
Cc1cc(C)cc(NS(=O)(=O)c2ccc3[nH]cc(C(=O)N4CCCCCC4)c(=O)c3c2)c1	1.98%
COc1ccc(OC)c(Nc2ncnc3c2cnn3-c2ccc(C)cc2)c1	-3.08%
CCCc1cc(C(=O)Nc2cccc(Cl)c2)no1	active: 33.1%
COc1ccc(S(=O)(=O)NCC2CCCN(C(=O)c3ccco3)C2)cc1 (stereo unspecified)	active: 31.5%
Cn1c(=O)n(C/C=C/c2ccccc2)c(=O)c2c1nc1n2CCN1c1ccc(Cl)cc1	-9.52%
O=C(c1cccs1)N1CCC(C(=O)N2CCN(Cc3ccc4c(c3)OCO4)CC2)CC1	active: 52.1%
COc1ccc(Cn2c(SCc3ccc(C(=O)NCCc4ccccc4)cc3)nc3cccnc32)cc1	20.6%
CCN(CC)c1nn2c(=O)c(C(=O)NCc3cccc(C)c3)cnc2s1	7.2%
Cn1nc(-c2ccccc2F)c2cc(C(=O)N3CCN(c4ccc(F)cc4)CC3)sc21	-23.3%
CCOC(=O)c1[nH]c(C)c(CCC(=O)NCc2ccccc2C)c1C	7.23%
CCn1cc(S(=O)(=O)c2ccc(C)cc2)c(=O)c2cc(F)c(N3CCCCCC3)cc21	2.39%
Cc1ccc(NC(=O)CSc2ncnc3c2sc2ccccc23)cc1C	-13.1%

SMILES	inhibition
CCCN1CCN(CCCNC(=O)Cn2c(-c3cccs3)cc3ccccc32)CC1	-16.9%
CCC(C)NC(=O)Cn1c(=O)n(Cc2ccc(C(=O)NCc3ccccc3OC)cc2)c(=O)c2ccccc21 (stereo unspecified)	4.6%
Cc1nn(C(=O)c2cccc(F)c2)c(C)c1S(=O)(=O)N1CCCCCC1	0.061%
Cn1cnc(S(=O)(=O)N2CCC(C(=O)N3CCN(c4cccc(C(F)(F)F)c4)CC3)CC2)c1	22%
O=C(Nc1c(C(=O)c2ccccc2)oc2ccccc12)c1cc(=O)c2ccccc2o1	-16.9%
CCOC(=O)c1c(C)[nH]c(C)c1S(=O)(=O)NCC(=O)N(C)c1ccc(C)c(C)c1	2.19%
COc1ccc(NC(=O)CSc2nc(-c3ccccc3)nc3cc(=O)[nH]n23)cc1	-3.93%
CC(C)(C)c1ccc(NC(=O)CSc2nnc3scc(-c4ccccc4)n23)cc1	-4.6%
CCOC(=O)c1cnc2c(OC)cccc2c1Nc1cccc(O)c1	22.6%
CSc1ncc(C(=O)Nc2ccccc2C(=O)c2ccccc2)c(C)n1	10%
Cc1nc2cccnc2n1-c1cccc(C(=O)NCCc2ccc(Cl)cc2)c1	3.78%
CCC(=O)N1CCCc2cc(S(=O)(=O)Nc3ccc(C)c(C)c3)ccc21	3.33%
COc1cc(CN2CCc3nc(N4CCN(c5ccccc5F)CC4)ncc3C2)ccc1OC(C)C	7.07%
CCCCN(CC)C(=O)Cn1c(=O)n(-c2ccc(OCC)cc2)c(=O)c2c3c(sc21)CCCC3	-23.5%
Cc1c(C(=O)Nc2ccc(Br)cc2F)sc2ncnc(N(C)C3CCCCC3)c12	-16%
Cc1nc2c3ccccc3nc(NNC(=O)CCC(=O)N3CCN(c4ccccc4F)CC3)n2n1	-14.2%
COc1cc(C2c3c(oc4ccc(C)cc4c3=O)C(=O)N2Cc2ccc(F)cc2)ccc1O (stereo unspecified)	-4.92%
COc1ccc(C2Nc3ccccc3-c3nnc(SC)nc3O2)cc1C (stereo unspecified)	1.3%
Cc1ccc(C(=O)Nc2ccccc2F)cc1S(=O)(=O)N1CCOCC1	-4.13%
CCc1ccc(N(C(=O)CCC(=O)Nc2cc(C)on2)C(C(=O)NC2CCCC2)c2ccco2)cc1 (stereo unspecified)	active: 33.5%
Cc1ccc(NC(=O)CCC(=O)N2CCOc3ccccc32)c(Cl)c1	17.5%
CCn1c2ccc(F)cc2c2nnc(SCCN3CCCCC3)nc21	13.6%
O=C(NCCCN1CCN(c2ccccc2F)CC1)C1CC(=O)N(C2CCCC2)C1 (stereo unspecified)	active: 84.1%
Cc1cc(C)c2c(C)c(C(=O)N3CCC(c4nc5ccccc5s4)CC3)oc2c1	-4.07%
